{
  "source": "PubChem BioAssay AID1345082",
  "about": "(National Center for Advancing Translational Sciences (NCATS), 2018)",
  "note": "Hit rate of the full screen: of about 94,000 compounds, about 4,000 (4.3%) were called active. Inconclusive means that the source gave no clear call. Such entries were picked first, then a sample of the others. The call rests on the fitted dose curve; in most records, active means well fitted inhibition curve with a large enough effect; inconclusive means small, poorly fitted or top-dose-only effect; inactive means no such curve, though single readings can be large or run the other way. Potencies beside an inconclusive call are fits to weak or partial responses and may not hold up. Potency means the concentration at half of the fitted maximal effect; tags describe the fitted curve by direction and shape.",
  "data": [
    {"experiment": "Cytotoxic Profiling in NIH 3T3 Cell Line of Diverse Libraries Using Quantitative High-Throughput Screening; further: nearly all actives have a fitted effect of over 55% in size", "conditions": "NIH 3T3 viability, CellTiter-Glo ATP luminescence, 48-72 h; series mostly up to 96.7 µM", "how_it_was_run": "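Cytotoxicity was measured by CellTiter-Glo ATP luminescence after 48 or 72 h compound exposure at 37 °C. Mouse NIH 3T3 fibroblasts were seeded at 400 cells/well and dosed by 23 nL pin transfer.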", "values": [
      {"compound": "COc1ccccc1C(=O)N1CCC(Cc2nc(C(C)C)no2)CC1", "Potency": "inactive"},
      {"compound": "CC(=O)Nc1ccc(C(=O)N2Cc3ccccc3OC3(CCN(C(=O)N(C)C)CC3)C2)cc1", "Potency": "inactive"},
      {"compound": "COc1ccc2[nH]cc(CCNC(=O)c3ccc(N4CC5CC(C4)[C@H]4CCCC(=O)N4C5)nc3)c2c1", "note": "(stereo not given in full)", "Potency": "inactive"},
      {"compound": "CN1c2cc(C(=O)Nc3ccccc3)ccc2C(=O)N2CCCCCC21", "note": "(stereo not given)", "Potency": "inconclusive: 50.1 µM [inhibitor, partial curve, poor fit]"},
      {"compound": "O=C(Cc1ccsc1)N1CCC(Cc2nc(-c3ccc(F)cc3)no2)CC1", "Potency": "inconclusive: 39.8 µM [inhibitor, partial curve, poor fit]"},
      {"compound": "Cc1cccc(NC(=O)N2CCCCC2c2nc(-c3cccnc3)n[nH]2)c1", "note": "(stereo not given)", "Potency": "inactive"},
      {"compound": "CC(=O)NCCCC(=O)N1CCC2(CC1)CC(NC(C)=O)c1ccccc1O2", "note": "(stereo not given)", "Potency": "inactive"},
      {"compound": "C[C@]1(CO)[C@H]2Cc3sc(NC(=O)c4ccc(F)cc4)nc3[C@@H](CC(=O)NCc3ccccc3)[C@]2(C)CC[C@H]1O", "Potency": "inconclusive: 50.1 µM [inhibitor, partial curve, poor fit]"},
      {"compound": "Cn1ncc2c(C(=O)NCc3ccc(C(F)(F)F)cc3)cc(-c3ccccc3F)nc21", "Potency": "inconclusive: 28.2 µM [inhibitor, partial curve, poor fit]"},
      {"compound": "O=C(NC1CC1)C1CCCCN1Cc1ccc(-c2ccsc2)cc1", "note": "(stereo not given)", "Potency": "active: 79.4 µM"},
      {"compound": "O=C(c1ccc2c(c1)OCO2)N1CCc2nc(C3CC3)nc(-c3ccc(Cl)cc3)c2C1", "Potency": "inactive"},
      {"compound": "CN(C)CC(=O)N1CCC2(C1)CN(C)c1ccc(C(=O)NCc3ccccc3)cc12", "note": "(stereo not given)", "Potency": "inconclusive: 100 µM [inhibitor, partial curve]"},
      {"compound": "CN(C)CCC(=O)N1Cc2ccccc2CC2(CCCCN2Cc2cccnc2)C1", "note": "(stereo not given)", "Potency": "inactive"},
      {"compound": "COc1ccc(F)cc1-c1cccc(C(=O)NCCN[S+](=O)([O-])CCC(F)(F)F)c1", "Potency": "inconclusive: 44.7 µM [inhibitor, partial curve, poor fit]"},
      {"compound": "COC(=O)N1CC(CN2C(=O)c3c(c(C)nn3-c3ccccc3)C2C2CC2)C1", "note": "(stereo not given)", "Potency": "inconclusive: 50.1 µM [inhibitor, partial curve, poor fit]"},
      {"compound": "Clc1ccc(-c2cnc3n2C[C@H](CNCc2cccnc2)OC3)cc1", "Potency": "inconclusive: 100 µM [inhibitor, partial curve]"},
      {"compound": "CCOC(=O)C(Cc1cccc(N2CCC(Nc3ccccc3)CC2)c1F)OC", "note": "(stereo not given)", "Potency": "inconclusive: 50.1 µM [inhibitor, partial curve, poor fit]"},
      {"compound": "Cn1ncc2c(C(=O)NCc3ccc(Cl)cc3)cc(-c3cccnc3)nc21", "Potency": "inconclusive: 50.1 µM [inhibitor, partial curve, poor fit]"},
      {"compound": "Cn1nc(C2CCCN(C(=O)CCc3ccccc3)C2)n(C2CCCC2)c1=O", "note": "(stereo not given)", "Potency": "inconclusive: 3.55 µM [inhibitor, full curve, poor fit]"},
      {"compound": "C[S+](=O)([O-])NC1CCN(Cc2cccc(-c3cccs3)c2)CC1", "Potency": "inconclusive: 50.1 µM [inhibitor, partial curve, poor fit]"},
      {"compound": "COc1ccc(-c2nc(C3CC(=O)N(c4ccc(C)cc4)C3)no2)c(OC)c1", "note": "(stereo not given)", "Potency": "inconclusive: 44.7 µM [inhibitor, partial curve, poor fit]"},
      {"compound": "O=C(c1ccc(-c2cccs2)cc1)N1CCC(N[S+](=O)([O-])c2cccs2)CC1", "Potency": "inconclusive: 17.8 µM [inhibitor, full curve]"},
      {"compound": "C1CNC(c2nc(C3CCOCC3)no2)C1", "note": "(stereo not given)", "Potency": "inactive"},
      {"compound": "O=C(NCC(F)F)[C@@H]1CCCN1c1nccc(Nc2ccccc2Cl)n1", "Potency": "inactive"},
      {"compound": "CCc1c(-c2nc(C3CCOC3)no2)[nH]c2ccccc12", "note": "(stereo not given)", "Potency": "inconclusive: 44.7 µM [inhibitor, partial curve]"},
      {"compound": "C[C@H]1[C@@H]2[C@@H](O)C([C@H](C)C(=O)N(C)Cc3cccnc3)CC[C@@]2(C)CC[C@@H]1NC(=O)C1CCCCC1", "note": "(stereo not given in full)", "Potency": "inconclusive: 39.8 µM [inhibitor, partial curve]"},
      {"compound": "CC[C@H]1CN(S(=O)(=O)c2ccc(OC)cc2)CC[C@H]1CC(=O)Nc1ccccc1", "Potency": "inconclusive: 89.1 µM [inhibitor, partial curve, poor fit]"},
      {"compound": "Cc1ccc(-n2c(C3CCN(C(=O)c4ccc5ccccc5n4)CC3)n[nH]c2=O)cc1", "Potency": "inconclusive: 7.08 µM [inhibitor, full curve, poor fit]"},
      {"compound": "O=C(Nc1ccccc1F)C1CCCN(Cc2cccc(-c3cccs3)c2)C1", "note": "(stereo not given)", "Potency": "inconclusive: 44.7 µM [inhibitor, partial curve, poor fit]"},
      {"compound": "COc1ccc(F)cc1-c1ccc(CN2CCC(NC(=O)NC3CCCC3)C2)cc1", "note": "(stereo not given)", "Potency": "active: 12.6 µM"},
      {"compound": "Cc1nn(CCC#N)c(C)c1[C@@H]1C=C[C@@H](NS(=O)(=O)c2cccs2)C1", "Potency": "active: 44.7 µM"},
      {"compound": "Cc1cccc(C(=O)N2CCC(c3n[nH]c(=O)n3-c3ccccc3)CC2)c1", "Potency": "inconclusive: 56.2 µM [inhibitor, partial curve, poor fit]"},
      {"compound": "COC(=O)[C@@H]1Cc2c([nH]c3ccccc23)[C@H]2C[C@H](NCCNC(C)=O)C[C@@H](c3ccccc3)N21", "Potency": "inconclusive: 89.1 µM [inhibitor, single point]"},
      {"compound": "CNC(=O)c1cc(C)nc2onc(C3CCCN(C(=O)c4ccccc4Cl)C3)c12", "note": "(stereo not given)", "Potency": "inactive"},
      {"compound": "Cc1cccc(-c2cnc3[nH]cc(CC(=O)N4CCOCC4)c3c2)c1", "Potency": "inconclusive: 44.7 µM [inhibitor, partial curve]"},
      {"compound": "CCOc1ccc(C(=O)N2CCC(Cc3nc(-c4ccc(F)cc4)no3)CC2)cc1OCC", "Potency": "active: 39.8 µM"},
      {"compound": "COc1ccccc1/C=C/CN1CCC(n2cc(CN(C)C)nn2)CC1", "Potency": "inconclusive: 44.7 µM [inhibitor, partial curve, poor fit]"},
      {"compound": "C#CCO[C@@H]1CCN(S(=O)(=O)c2cccs2)[C@H](C(=O)N[C@H](C)C(N)=O)C1", "Potency": "inactive"},
      {"compound": "CN(c1cc(=O)c2ccnc(-c3cccc(CO)c3)c2o1)C1CCOCC1", "Potency": "active: 25.1 µM"},
      {"compound": "COc1ccccc1NC(=O)c1c(C)oc2ccn(Cc3ccc(F)cc3)c(=O)c12", "Potency": "inconclusive: 25.1 µM [inhibitor, full curve]"},
      {"compound": "Cc1ccc(C(=O)NCCn2cccc2-c2nc(-c3ccc4c(c3)OCO4)no2)cn1", "Potency": "inconclusive: 28.2 µM [inhibitor, partial curve]"},
      {"compound": "O=C(NCCc1ccc(Cl)cc1)C1CCCN(Cc2cccc(-c3ccsc3)c2)C1", "note": "(stereo not given)", "Potency": "active: 14.1 µM"},
      {"compound": "CC(C)CS(=O)(=O)Nc1ccc([C@H]2OCC(=O)N(Cc3ccc(F)cc3)[C@@H]2CO)cc1", "Potency": "inactive"},
      {"compound": "COc1ccc([S+](=O)([O-])c2nnn3c2nc(N2CCOCC2)c2ccccc23)cc1", "Potency": "inconclusive: 12.6 µM [inhibitor, partial curve, poor fit]"},
      {"compound": "CCc1ccc(CN2CCC3(Cc4ccccc4CNC3=O)C2)s1", "note": "(stereo not given)", "Potency": "inactive"},
      {"compound": "CC(C)c1ccc(CNC(=O)c2ccc(Cn3ccn4nc5c(c4c3=O)CCCC5)cc2)cc1", "Potency": "inconclusive: 25.1 µM [inhibitor, partial curve]"},
      {"compound": "O=C(N[C@@H]1CN(Cc2ccc(CO)o2)CCC[C@H]1O)c1ccc(OCc2ccccc2)cc1", "Potency": "inconclusive: 50.1 µM [inhibitor, partial curve, poor fit]"},
      {"compound": "CCn1c(CN2CCN(c3nc4ccccc4s3)CC2)nnc1C1CC(N)C1", "note": "(stereo not given)", "Potency": "inactive"},
      {"compound": "CCc1ccc(N2CC(c3noc(-c4ccncc4)n3)CC2=O)cc1", "note": "(stereo not given)", "Potency": "inconclusive: 39.8 µM [inhibitor, partial curve, poor fit]"},
      {"compound": "O=C(Nc1ccc(Cl)cc1)C1=NO[C@@H]2CN(c3ccccn3)C[C@H]12", "Potency": "inactive"},
      {"compound": "O=C(O)CCC(=O)N1Cc2ccccc2CC2(CCCN(Cc3ccccc3)C2)C1", "note": "(stereo not given)", "Potency": "inactive"},
      {"compound": "O=C(NCc1ccc(F)cc1)N1CCc2nnc(C3CC3)n2CC1", "Potency": "inconclusive: 70.8 µM [inhibitor, partial curve, poor fit]"},
      {"compound": "CCn1nc(C)c(-c2cc(C(=O)NCC3Cn4cccc4C(=O)N3C)no2)c1C", "note": "(stereo not given)", "Potency": "inactive"},
      {"compound": "Cc1ccc(CN2CC[C@@H]3[C@H]2C(=O)NC[C@H](CCC(=O)NCc2cccs2)N3C)cc1", "Potency": "inactive"},
      {"compound": "CCc1nc(-c2c3n(c(=O)n(Cc4cccc(OC)c4)c2=O)CCCC3)no1", "Potency": "inactive"},
      {"compound": "C[C@@H]1CN(C(=O)c2ccnc(-c3nnc4ccc(Nc5ccccc5)nn34)c2)C[C@H](C)O1", "Potency": "inconclusive: 100 µM [inhibitor, single point]"},
      {"compound": "Cc1noc(-c2cn(C3CCN(C(=O)c4cccc(C#N)c4)CC3)nn2)n1", "Potency": "inconclusive: 70.8 µM [inhibitor, single point]"},
      {"compound": "Cc1ncsc1CN1CC(Oc2cccc(C(=O)NCC3CC3)c2)C1", "Potency": "inactive"},
      {"compound": "CCNC(=O)c1ccccc1-c1ccc(O)cc1", "Potency": "inactive"},
      {"compound": "COc1ccc(-c2nnc(C[C@@H]3C[C@@H](C(C)C)[C@H](CN4CCN(c5ncccn5)CC4)C=C3C)o2)cc1", "Potency": "inconclusive: 39.8 µM [inhibitor, partial curve, poor fit]"},
      {"compound": "Cc1cccc(CC(=O)NCCC2CCN(C(=O)Nc3cc(F)cc(F)c3)CC2)c1", "Potency": "inconclusive: 50.1 µM [inhibitor, single point]"},
      {"compound": "CCN1CCN(c2nccc(Cl)n2)C(=O)C1", "Potency": "inactive"},
      {"compound": "Cc1nc(CN2C(=O)OC3(CCN(Cc4c[nH]c5ccccc45)CC3)C2(C)c2ccccc2)cs1", "note": "(stereo not given)", "Potency": "active: 20 µM"},
      {"compound": "CCC(c1cccs1)N1C(=O)[C@H]2CN(Cc3cccnc3)C[C@H]2C1=O", "note": "(stereo not given in full)", "Potency": "inconclusive: 56.2 µM [inhibitor, partial curve, poor fit]"},
      {"compound": "COCCNc1ncc(-c2ccncc2)c2c1OCC2", "Potency": "inconclusive: 112 µM [inhibitor, partial curve, poor fit]"}
    ]}
  ]
}
